The list shows a part of the results. Single values are uncertain, as repeats are few or missing.
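Further: cells treated in 1,536-well plates, then fixed and DAPI-stained, with nuclei counted from automated high-throughput microscope images.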

The assay has as its system WM1745. Kind of assay: cell count relative to DMSO control; melanoma cells; higher = more viable cells. To be noted: library dose: standard library concentration; 72 h.
Consider `O=C(Nc1cccc(Cl)c1)Nc1ncc(CCNc2ncnc3ccsc23)s1` + CC(C)CCN1c2nc(Nc3cc(F)c(O)c(F)c3)ncc2N(C)C(=O)C1C [BID1870] (first compound 0.004 µM, partner dose 1 µM), for which the cell count was determined as 68.2%.

Compound `Cn1cncc1[C@@](N)(c1ccc(Cl)cc1)c1ccc2c(c1)c(-c1cccc(Cl)c1)cc(=O)n2C` [tipifarnib] + COc1cc(N2CCC(N3CCN(C)CC3)CC2)ccc1Nc1ncc(Cl)c(Nc2ccccc2S(=O)(=O)C(C)C)n1 [NVP-TAE684] (first compound 0.05 µM, partner dose 0.4 µM) showed a cell count of 49%.

As to `C[C@@H]1CCN(C(=O)CC#N)C[C@@H]1N(C)c1ncnc2[nH]ccc12` + CCCCCCCCCCCC1=C(O)C(=O)C=C(O)C1=O [Embelin] (first compound 5 µM, partner dose 6 µM), the cell count is 104%.

Turning to `C[C@@H]1CCN(C(=O)CC#N)C[C@@H]1N(C)c1ncnc2[nH]ccc12` + Cc1cc([N+](=O)[O-])ccc1NS(=O)(=O)c1cc(Cl)ccc1Cl [FH535] (first compound 5 µM, partner dose 5 µM), the cell count worked out at 98.6%.

`O=C(O)c1ccc(-c2c[nH]c3ncc(-c4ccccc4)cc23)cc1C1CCCC1` + Oc1cc(-c2nc(-c3ccccc3)[nH]c2-c2ccncc2)ccc1Cl [L779450] (first compound 0.8 µM, partner dose 1 µM) displayed a cell count of 61.8%.

`CC1(C)NC(=O)N(c2ccc([N+](=O)[O-])c(C(F)(F)F)c2)C1=O` [nilutamide] + COc1ccc(-c2ccc3c(N4CCOCC4)nc(N4C[C@@H](C)O[C@@H](C)C4)nc3n2)cc1CO [KU0063794] (first compound 5 µM, partner dose 0.1 µM) showed a cell count of 84.3%.

With `O=c1[nH]nc(Sc2ncc([N+](=O)[O-])s2)n1-c1ccc2c(c1)OCCO2` + C[C@@H](Oc1cc(-c2cnn(C3CCNCC3)c2)cnc1N)c1c(Cl)ccc(F)c1Cl [Crizotinib] (first compound 1 µM, partner dose 1 µM), the cell count was found to be 86.5%.

As for `O=C(Nc1cccc(Cl)c1)Nc1ncc(CCNc2ncnc3ccsc23)s1` + Cc1cc([N+](=O)[O-])ccc1NS(=O)(=O)c1cc(Cl)ccc1Cl [FH535] (first compound 0.004 µM, partner dose 5 µM), the cell count was found to be 74.3%.

`COc1cc(Nc2ncc(F)c(Nc3ccc4c(n3)NC(=O)C(C)(C)O4)n2)cc(OC)c1OC` [Tamatinib] + O=c1cc(-c2cccc3c2Sc2ccccc2S3)oc(N2CCOCC2)c1 [KU55933] (first compound 2 µM, partner dose 5 µM) gave a cell count of 33.7%.

Turning to `O=C(O)c1ccc(-c2c[nH]c3ncc(-c4ccccc4)cc23)cc1C1CCCC1` + O=C1NC(=O)/C(=C/c2ccc(-c3ccc(F)cc3O)o2)S1 [AS252424] (first compound 0.8 µM, partner dose 5 µM), the cell count worked out at 66.3%.

Compound `O=C(Nc1cccc(Cl)c1)Nc1ncc(CCNc2ncnc3ccsc23)s1` + COc1ccc2c(c1)CCC1C2CCC2(C)C(NCCCCCCN3C(=O)C=CC3=O)CCC12 [U73122] (first compound 0.004 µM, partner dose 2 µM) yielded a cell count of 83.5%.

Compound `COc1cc(Nc2ncc(F)c(Nc3ccc4c(n3)NC(=O)C(C)(C)O4)n2)cc(OC)c1OC` [Tamatinib] + Oc1cc(-c2nc(-c3ccccc3)[nH]c2-c2ccncc2)ccc1Cl [L779450] (first compound 2 µM, partner dose 1 µM) had a cell count of 17.6%.

`COc1cc(Nc2ncc(F)c(Nc3ccc4c(n3)NC(=O)C(C)(C)O4)n2)cc(OC)c1OC` [Tamatinib] + COc1cc2ncnc(Nc3ccc(Oc4ccccc4)cc3)c2cc1OC [SrcI1] (first compound 2 µM, partner dose 10 µM) returned a cell count of 25.6%.

For the compound `O=C(O)c1ccc(-c2c[nH]c3ncc(-c4ccccc4)cc23)cc1C1CCCC1` + COC(=O)c1sccc1S(=O)(=O)Nc1ccc(Nc2ccccc2)cc1OC [GSK0660] (first compound 0.8 µM, partner dose 5 µM), the cell count worked out at 73%.

`Cn1cncc1[C@@](N)(c1ccc(Cl)cc1)c1ccc2c(c1)c(-c1cccc(Cl)c1)cc(=O)n2C` [tipifarnib] + COc1ccc2c(c1)CCC1C2CCC2(C)C(NCCCCCCN3C(=O)C=CC3=O)CCC12 [U73122] (first compound 0.05 µM, partner dose 2 µM) had a cell count of 73.5%.

Turning to `O=c1[nH]nc(Sc2ncc([N+](=O)[O-])s2)n1-c1ccc2c(c1)OCCO2` + Nc1cccc2c1CN(C1CCC(=O)NC1=O)C2=O [lenalidomide] (first compound 1 µM, partner dose 5 µM), the cell count worked out at 80.4%.

`C[C@@H]1CCN(C(=O)CC#N)C[C@@H]1N(C)c1ncnc2[nH]ccc12` + Oc1nc(-c2ccc(C(F)(F)F)cc2)nc2c1CSCC2 [XAV939] (first compound 5 µM, partner dose 10 µM) showed a cell count of 74.6%.
